Test results taken from PubChem BioAssay AID1671194 (National Center for Advancing Translational Sciences (NCATS), 2021).
Out of some 140,000 compounds screened, about 240 (0.17%) were called active. The shares of active, inactive and inconclusive entries below differ from those in the screen. Calls follow the shape of the dose curve; as a rule, active = well fitted inhibition curve with a large enough effect; inconclusive = small, poorly fitted or top-dose-only effect; inactive = no such curve, though single readings can be large or run the other way. Potencies of inconclusive entries are doubtful fits and often do not repeat.

Assay: Primary qHTS assay for inhibitors of alpha-synuclein gene (SNCA) expression; also: nearly all actives have a fitted effect of over 45% in size;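 as to activity change, negative = inhibition: plate controls were DMSO cells for no effect and cell-free wells for full effect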
Details: HEK-293 SNCA-luciferase knock-in, luminescence, 24 h; activity change, negative = inhibition: at 57.2 µM (top of the series) unless noted
Potency is read from the fitted curve at half-maximal effect; tags tell the direction and shape of the fitted curve.

Row | SMILES | Potency | activity change, negative = inhibition
1 | CCOc1ccc(NC(=O)Cn2cnc3nc4c(cc3c2=O)CCCC4)cc1 | inconclusive: 2.82 µM [inhibitor, single point] | –
2 | COc1ccc(CCNC(=O)CCCn2c(=O)c3ccccc3n(CC(=O)Nc3c(C)cc(C)cc3C)c2=O)cc1OC | inconclusive: 10 µM [inhibitor, partial curve, poor fit] | –
3 | COc1cc(F)ccc1-c1cc(-c2cn[nH]c2)c2cncn2c1 | inconclusive: 2.82 µM [inhibitor, full curve, poor fit] | –
4 | Cc1cccc(-c2noc([C@@H]3Cc4nc[nH]c4CN3)n2)c1 | inconclusive: 11.2 µM [inhibitor, single point] | –
5 | O=C(c1noc2c1CCCC2)N1CCOc2ccc(CN3CCN(c4ccccn4)CC3)cc2C1 | inconclusive: 3.16 µM [inhibitor, single point] | –
6 | CC(=O)N(C)C1(c2ccccc2)CCN(CCC[C@]2(c3ccc(Cl)c(Cl)c3)CCCN(C(=O)c3ccccc3)C2)CC1 | active: 1.71 µM | –
7 | COc1cccc(S(=O)(=O)NCC2Cn3cccc3C(=O)N2C)c1 (stereo unspecified) | – | inactive: 22.3%
8 | CCS(=O)(=O)c1ncc(Cl)c(C(=O)N(Cc2ccccc2)Cc2ccco2)n1 | inconclusive: 11.2 µM [inhibitor, partial curve, poor fit] | –
9 | CCc1ccc(C(=O)NC2CCN(c3ccccc3)C2=O)cc1 (stereo unspecified) | inconclusive: 0.794 µM [inhibitor, full curve, poor fit] | –
10 | COc1ccc(-c2noc([C@@H]3CCCN3C3CCCCC3)n2)cn1 | – | inactive: 8.65% [at 87.6 µM]
11 | Cc1nn(-c2ccccc2)c(C)c1CN1CCC2(CC1)Cc1ccccc1CNC2=O | – | inactive: -13.4%
12 | O=C(NCCc1cnc[nH]1)C1CC(=O)N(c2n[nH]c3ccccc23)C1 (stereo unspecified) | – | inactive: -5.2%
13 | COc1ccc(CN2C(=O)[C@@H]3C[C@@H](CN3Cc3ccccc3C)Oc3ccccc32)cc1 | inconclusive: 2.82 µM [inhibitor, full curve, poor fit] | –
14 | COc1cccc(C(=O)N2CCCN(c3cc(-c4ccc(C)c(C)c4)[nH]n3)CC2)c1OC | – | inactive: -3.18%
15 | COc1ccc(Cl)cc1-c1ccc2c(c1)C(=O)N1CCN(C(=O)CC(C)(C)C)C[C@@H]1C(=O)N2 | – | inactive: 8.28%
16 | CCCCn1c(=O)c(C(=O)N2CCC(C#N)CC2)nc2cccnc21 | – | inactive: 8.21% [at 87.6 µM]
17 | O=C(NCCc1c[nH]c2ccccc12)Nc1ccccc1C(F)(F)F | – | inactive: -13.4%
18 | Fc1ccccc1-c1noc(-c2nc(-c3ccncc3)no2)n1 | – | inactive: 54.8%
19 | CCN1CCN(c2nc3c(s2)CN(C(=O)c2ccccn2)CC3)CC1 | inconclusive: 22.4 µM [inhibitor, single point] | –
20 | CCOC(=O)c1ccc(N2C(=O)c3[nH]nc(-c4ccc(OC)cc4)c3C2c2ccc(C)cc2)cc1 (stereo unspecified) | inconclusive: 31.6 µM [inhibitor, single point] | –
21 | O=C1CN(C(=O)c2ccccc2)C(c2ccc(F)cc2)c2cc(Br)ccc2N1 (stereo unspecified) | inconclusive: 17.8 µM [inhibitor, single point] | –
22 | Cc1ccc(-n2c(=O)c3c(C)c(C)sc3n(CC(=O)c3ccc(Cl)cc3)c2=O)cc1C | inconclusive: 39.8 µM [inhibitor, single point] | –

Row | SMILES | Potency | activity change, negative = inhibition
23 | COc1ccccc1-c1cccc(CN2CCCC(C(=O)Nc3cccc(Cl)c3)C2)c1 (stereo unspecified) | inconclusive: 14.1 µM [inhibitor, partial curve, poor fit] | –
24 | O=C(CCC1CCCC1)N1CC(N(Cc2ccccn2)C(=O)Nc2ccccc2)C1 | inconclusive: 35.5 µM [inhibitor, single point] | –
25 | CCCNC(=O)N1C[C@@H](Oc2cccnc2)C[C@@H]1C(=O)NC | inconclusive: 7.94 µM [inhibitor, full curve, poor fit] | –
26 | CNC(=O)CCn1ncc2cc(OCc3ccccc3-c3cc(F)ccc3OC)ccc21 | inconclusive: 28.2 µM [inhibitor, single point] | –
27 | O=C(NCc1ccccc1)c1cnc2n1CCN(Cc1ccccc1F)CC2 | inconclusive: 56.2 µM [inhibitor, single point] | –
28 | COc1ccc(-n2c(=O)c(C(=O)NCc3cccc(OC)c3)nc3cccnc32)cc1 | – | inactive: -19.1%
29 | CN(Cc1ccccc1)C1CCOC2(CCN(C(=O)NCc3ccc(F)cc3)CC2)C1 (stereo unspecified) | inconclusive: 8.91 µM [inhibitor, single point] | –
30 | O=C(NC1CCCC1)c1csc(N2CCN(c3cccc(Cl)c3)CC2)n1 | inconclusive: 0.708 µM [inhibitor, full curve, poor fit] | –
31 | CCc1nncn1C1CCN(S(=O)(=O)c2cc(OC)ccc2OC)CC1 | inconclusive: 3.98 µM [inhibitor, single point] | –
32 | CC1CCN(C(=O)CSc2c3c(nc4cc(Cl)ccc24)CCCC3)CC1 | inconclusive: 17.8 µM [inhibitor, single point] | –
33 | Cc1ccc(-c2nnc(SCCOc3ccccc3)o2)cc1 | – | inactive: 37.7%
34 | CCOc1ccc(-n2nc(CO)c(C(=O)NCc3ccc(Cl)cc3)n2)cc1 | inconclusive: 39.8 µM [inhibitor, single point] | –
35 | COc1ccc(-c2cc(N3CCCN(C(=O)Cc4ccc(C)cc4)CC3)n[nH]2)cc1 | – | inactive: -30%
36 | O=C(CN1C(=O)C(c2ccccc2)=NC12CCCC2)Nc1cccc(C(F)(F)F)c1 | – | inactive: -26.3%
37 | COCCNC(=O)c1ccc2c(c1)N(C)C(CC(=O)NC1CCC1)CO2 (stereo unspecified) | – | inactive: -27.2%
38 | COc1ccc(-n2nc(C)c([C@@H]3C=C[C@@H](NC(=S)NCC(C)C)C3)c2C)cc1 | – | inactive: 66.8% [at 87.6 µM]
39 | CCC1(N2CCN(S(=O)(=O)c3ccc(Cl)s3)CC2)CCN(S(C)(=O)=O)C1 (stereo unspecified) | inconclusive: 2 µM [inhibitor, full curve] | –
40 | COc1cccc(CNC(=O)c2ccc3nnc(-c4c(C)cccc4C)n3c2)c1 | – | inactive: 22.2%
41 | CCC(=O)Nc1sc2c(c1C(=O)Nc1ccc(OC)cc1)CCC(C(C)(C)C)C2 (stereo unspecified) | inconclusive: 3.55 µM [inhibitor, partial curve, poor fit] | –
42 | COc1cccc(N2C(=O)NC(=NC3CCCCC3)C23CCN([S+](=O)([O-])c2ccccc2)C3)c1 (stereo unspecified) | inconclusive: 1.12 µM [inhibitor, full curve, poor fit] | –
43 | CCOc1ccc(NC(=O)CN(C)S(=O)(=O)c2ccc3c(c2)c(=O)n(C)c(=O)n3C)cc1 | inconclusive: 7.08 µM [inhibitor, single point] | –
44 | O=C(NC[C@H]1Cn2c(-c3ccccc3)cnc2CO1)c1cnccn1 | inconclusive: 35.5 µM [inhibitor, partial curve, poor fit] | –

Row | SMILES | Potency | activity change, negative = inhibition
45 | CC1=C[C@@H](CNC(=O)COc2ccccc2)[C@H](C(C)C)C[C@H]1CC(=O)NCc1cccnc1 | inconclusive: 17.8 µM [inhibitor, single point] | –
46 | O=C(CCc1ccccc1)Nc1cnc(-c2cccnc2)nc1 | – | inactive: 0.907%
47 | CCc1nnc2ccc(NCc3ccc(F)cc3)nn12 | – | inactive: 13.9%
48 | O=C(CCn1ccn2nc3c(c2c1=O)CCCC3)NC1CCCC1 | – | inactive: -6.47%
49 | O=C(CCc1ccc(-c2ccc(Cl)cc2)[nH]1)N1CC[C@H](CO)[C@H](O)C1 | – | inactive: 33.8%
50 | Nc1nc(N)c(S(=O)(=O)c2ccccc2)c(Nc2ccc(Br)cc2)n1 | – | inactive: -2.4%
51 | COc1cccc(-c2cc(C(F)(F)F)nc(-n3nc(C)c(Br)c3C)n2)c1 | inconclusive: 3.98 µM [inhibitor, single point] | –
52 | CN(C)CCNC(=O)c1cc(-c2ccccc2F)cc2c1OCCN2Cc1cccnc1 | inconclusive: 5.01 µM [inhibitor, full curve, poor fit] | –
53 | O=C(C1CCCN1[S+](=O)([O-])c1ccccc1)N1CCC(c2nc3ccncc3[nH]2)CC1 (stereo unspecified) | – | inactive: 28%
54 | O=[S+]1([O-])c2cnccc2O[C@@H](COCc2ccccc2)CN1Cc1ccccc1 | inconclusive: 3.98 µM [inhibitor, full curve, poor fit] | –
55 | N#Cc1cccc(CN2CCc3nc(C(=O)Nc4cccc(C(F)(F)F)c4)oc3CC2)c1 | inconclusive: 39.8 µM [inhibitor, single point] | –
56 | Cc1cccc(CNC(=O)c2ccc(OC3CCN(CCc4ccccc4)CC3)cc2)n1 | inconclusive: 4.47 µM [inhibitor, single point] | –
57 | COc1ccc([C@H]2C[C@@H](O)[C@@H](O)[C@@H]2NCc2ccc(Cl)cc2)cc1 | inconclusive: 25.1 µM [inhibitor, single point] | –
58 | COc1ccc(N2CCN(C(=O)CSCc3nc(-c4ccccc4Cl)oc3C)CC2)cc1 | inconclusive: 39.8 µM [inhibitor, single point] | –
59 | F[C@@H]1CN(CC2CC2)C[C@@H]1OCc1nc2ccccc2o1 | – | inactive: 131% [at 87.6 µM]
60 | Cc1ccccc1CC(=O)N1CCN(C(=O)c2nnn3c2COC(c2ccc(Cl)cc2)C3)CC1 (stereo unspecified) | inconclusive: 11.2 µM [inhibitor, single point] | –
61 | CCOC(=O)c1ccc(N2C(=O)c3n[nH]c(-c4cccs4)c3C2c2ccc(O)c(OC)c2)cc1 (stereo unspecified) | inconclusive: 39.8 µM [inhibitor, single point] | –
62 | Cc1ccc(C(=O)Nc2ccc(-n3c(C)nc4ccccc4c3=O)cc2)cc1[N+](=O)[O-] | inconclusive: 15.8 µM [inhibitor, partial curve, poor fit] | –
63 | COC[C@@H]1CN(Cc2cc(C)nn2C)C[C@H]1c1nc(C2CC2)no1 | inconclusive: 8.91 µM [inhibitor, single point] | –
64 | Cc1cn2nc(C(=O)N3CCN(c4ccccc4F)CC3)cc2c(N2CCCC2)n1 | inconclusive: 3.98 µM [inhibitor, single point] | –
65 | O=C(Cc1ccccc1Cl)N1CCC(Cc2nc(-c3ccccc3)no2)CC1 | – | inactive: -2.55%
66 | O=C(C1CC1)N1CC2(CCCN2Cc2cccnc2)Cc2ccccc21 (stereo unspecified) | – | inactive: -20.7%
